# Results taken from PMC10668032.
# Some of the results follow. At the low end of the ranking the order means little.
# Biological target: SIX1 homeodomain (reference allele) (UniProt Q15475)
# Assay: universal protein binding microarray
# Conditions: Universal all-10-mer PBM (8x60K, AMADID 030236), 300 nM GST-tagged protein, Alexa Fluor 488 anti-GST; buffer, salt, pH and temperature not stated; high values mean tight binding; most listed sequences are background and not binding sites; double strand, one strand shown
row,Sequence,binding signal [E-score]
1,CCGGGCAC,-0.189
2,CCAACAAC,-0.105
3,ATGTGTGC,-0.0665
4,ACACCATA,0.302
5,GAGCTTAA,-0.192
6,GGTGTAAC,0.309
7,ACTATGCA,-0.0409
8,CTTCTGTA,-0.158
9,AATATAGT,0.0448
10,ACATTTCC,-0.169
11,ATATCGGC,0.394
12,GGCAGGTA,0.00479
13,CAAGTACA,-0.0765
14,GGCGCAGA,-0.11
15,CACATTAG,0.0103
16,ATCGTTAG,0.271
17,AGATAGAG,0.0387
18,CTTGACCA,-0.22
19,CATACAGA,0.196
20,CCTACACA,-0.0703
21,CCATAACA,0.0303
22,ATTTATAA,0.0163

row,Sequence,binding signal [E-score]
1,AAATCCGG,0.244
2,GGCACAGA,-0.112
3,CCTGTGCC,0.0102
4,AACACCAC,0.255
5,AAGTAACC,-0.0509
6,AGCCATAC,0.0156
7,GTGTAAAC,-0.00155
8,AGATTTGA,-0.00405
9,AATTCTAA,-0.074
10,ATAGTCAA,0.0303
11,GCGAAAAC,-0.349
12,AATACATA,0.242
13,AGGACTTG,-0.172
14,GGATGGCA,0.154
15,AAATCTAA,-0.157
16,TGGTCTAA,-0.00916
17,ACGCGCGT,-0.0496
18,GCAGGTCC,-0.0856
19,CCAACCGG,0.00407
20,ACGCGGAT,0.297
21,ACAGGCAA,-0.237
22,GCAAGAGC,-0.0465

row,Sequence,binding signal [E-score]
1,GTCTGTCA,-0.0514
2,GTTAACTA,-0.262
3,ATTACTGG,0.107
4,ACCACGAA,0.0223
5,TCATGGCA,-0.0688
6,AGTAGGCC,-0.227
7,CAGTTGAG,-0.144
8,ACTGATCG,0.156
9,CACATTCG,-0.0447
10,GCGGACAA,-0.177
11,AAGCGGGC,-0.256
12,GAAGTTCC,-0.349
13,CAGGGATC,0.42
14,GTCGCTCA,-0.231
15,GTAGTGAC,0.0448
16,CATAAAGC,-0.123
17,GGAAGACC,-0.236
18,ACCGGTAG,-0.0329
19,ACTAACAA,-0.243
20,GAAACCCC,0.121
21,CCCAGGTA,0.17
22,ACCGTTCT,-0.269

row,Sequence,binding signal [E-score]
1,AACGAACT,-0.112
2,AAAAATCA,-0.142
3,TGTCATAA,0.00529
4,GATGCTCC,-0.0897
5,CGCCCCAA,-0.0309
6,CCAAAGAC,-0.119
7,CTAATATA,0.261
8,GAAAGTAC,-0.28
9,TACTCACA,0.165
10,ATGGGTAG,0.121
11,ATTATCCC,0.274
12,AGCACCAC,-0.0988
13,ATGATCTG,0.355
14,GTCATCGA,-0.0083
15,GCTGCTCC,-0.264
16,GAATCCCA,0.165
17,AAGGAGAT,0.232
18,ATGGGATG,4.5e-05
19,AAATTGCA,-0.246
20,ATCTCAGG,0.164
21,ATTCAAAG,-0.308
22,GACAATAA,0.0406

row,Sequence,binding signal [E-score]
1,TATGTTGA,0.0435
2,CAGGCCGG,-0.0961
3,CCTTATTA,0.0415
4,GCCGCGTA,-0.0843
5,AGACAGGG,-0.0395
6,GCGGGCCA,-0.202
7,CCATGTGC,-0.14
8,CGCGGCCG,-0.0562
9,GCACGCGA,-0.0204
10,AGAAATGC,-0.17
11,AGCGAGGG,-0.00814
12,ACTTCGTC,0.0277
13,AACGTATC,0.385
14,AAGCGTTA,-0.267
15,ACACGGAA,0.0633
16,CTGAAACA,-0.15
17,GAGAGTAA,-0.116
18,CTCAATCA,-0.0919
19,AGCTACGC,-0.0418
20,GGTGGAAC,-0.25
21,GTGTCTCA,0.236
